About 14,000 (4.5%) of roughly 310,000 compounds showed an effect of 50% or more. The effect is printed as a negative number. This is one part of the list.
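Note: peak tail current of the secondary pulse compared with the same well before compound.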

In the test the target is human ether-à-go-go-related gene (hERG) potassium channel (human, UniProt Q12809). As to the kind of experiment: primary screen, population patch clamp on CHO cells stably expressing hERG.
human ether-à-go-go-related gene (hERG) potassium channel, sequence (Q12809 whole entry, looked up): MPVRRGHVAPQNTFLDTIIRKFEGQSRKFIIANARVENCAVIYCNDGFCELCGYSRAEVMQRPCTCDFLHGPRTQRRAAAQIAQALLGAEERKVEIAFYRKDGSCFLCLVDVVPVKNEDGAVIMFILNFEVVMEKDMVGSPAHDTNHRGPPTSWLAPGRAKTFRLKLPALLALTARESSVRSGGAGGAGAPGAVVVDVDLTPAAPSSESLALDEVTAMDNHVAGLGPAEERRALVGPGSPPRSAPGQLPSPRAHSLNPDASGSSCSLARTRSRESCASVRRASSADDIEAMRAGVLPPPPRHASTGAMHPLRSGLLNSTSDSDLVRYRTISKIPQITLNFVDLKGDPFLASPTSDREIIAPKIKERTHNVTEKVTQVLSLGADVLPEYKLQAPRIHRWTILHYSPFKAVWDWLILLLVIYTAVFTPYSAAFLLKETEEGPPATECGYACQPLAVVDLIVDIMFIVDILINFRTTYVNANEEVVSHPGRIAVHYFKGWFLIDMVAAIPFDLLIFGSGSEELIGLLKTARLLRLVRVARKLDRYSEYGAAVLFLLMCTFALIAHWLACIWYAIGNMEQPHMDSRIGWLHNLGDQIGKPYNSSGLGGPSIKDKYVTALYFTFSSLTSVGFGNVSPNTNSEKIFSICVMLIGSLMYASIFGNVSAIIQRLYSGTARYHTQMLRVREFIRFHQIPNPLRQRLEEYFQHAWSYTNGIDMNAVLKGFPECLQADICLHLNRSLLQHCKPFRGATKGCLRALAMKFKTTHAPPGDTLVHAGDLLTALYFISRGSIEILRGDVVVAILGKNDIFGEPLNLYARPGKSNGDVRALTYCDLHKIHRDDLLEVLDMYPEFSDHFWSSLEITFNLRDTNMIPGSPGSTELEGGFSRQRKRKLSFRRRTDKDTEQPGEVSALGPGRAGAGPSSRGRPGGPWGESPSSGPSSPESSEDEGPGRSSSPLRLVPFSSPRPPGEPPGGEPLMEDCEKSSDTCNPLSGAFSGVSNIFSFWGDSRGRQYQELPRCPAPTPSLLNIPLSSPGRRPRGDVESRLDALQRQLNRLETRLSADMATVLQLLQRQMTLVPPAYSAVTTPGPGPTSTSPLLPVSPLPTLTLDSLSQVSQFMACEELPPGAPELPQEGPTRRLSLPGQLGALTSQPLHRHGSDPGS
`Cc1n[nH]c(=O)nc1NCCN(C)C`: the “hERG current change (%, negative = inhibition) at 10uM” value came out at 17.4%. For the compound `CN(C)c1ccc(C(=O)N/N=C/c2ccccn2)cc1`, the “hERG current change (%, negative = inhibition) at 10uM” value is listed as 0.484%.

For the compound `Cc1ccc(NC(=O)Cn2ncn3c(cc4ccccc43)c2=O)c(C)c1`, the “hERG current change (%, negative = inhibition) at 10uM” value was 1.77%. In the case of `CCS(=O)(=O)c1ccc(-c2cccc(NC(=O)COc3ccc(Cl)cc3)c2)nn1`, the “hERG current change (%, negative = inhibition) at 10uM” value is -0.0211%. The result for `COC(=O)c1cccc(CSc2nnc(C)s2)c1` reads -1.67%. The figure for `C[C@H](NC(=O)c1[nH]cnc1C(=O)Nc1ccc(CNC(=O)OC(C)(C)C)cc1)C(=O)OC(C)(C)C` is 17.2%. `CC(=O)C1=NOC(CNC(=O)c2c(-c3ccccc3Cl)noc2C)C1` (stereo not drawn): the “hERG current change (%, negative = inhibition) at 10uM” value is recorded as 9.1%. The result for `Cc1ccc(C)c(NC(=O)CCC(=O)N/N=C/c2cccnc2)c1` reads 14.7%. The result for `CCCn1c(N)c(C(=O)CSc2ncn[nH]2)c(=O)n(C)c1=O` reads 25.3%; that for `NS(=O)(=O)c1ccc(NC(=O)COC(=O)CCc2ccc(S(=O)(=O)N3CCOCC3)cc2)cc1`, 10.4%; that for `CCCC(=O)Nc1nnc(-c2cccc(OCC)c2)s1`, 7.25%. The figure for `CCn1c(C)cc(/C=C2/SC(=S)N(CC(=O)O)C2=O)c1C` is 9.75%; for `O=C(c1sc2ccccc2c1Cl)N(Cc1ccco1)C1CCS(=O)(=O)C1` (stereo not drawn) it is 0.891%; for `CCN(Cc1ccccc1)C(c1ccncc1)c1nnnn1C(C)(C)C` (stereo not drawn) it is 0.0215%. Consider `COCCn1c(SCC(=O)NNC(=O)Cc2ccccc2)nc2ccccc2c1=O`, for which the “hERG current change (%, negative = inhibition) at 10uM” value turned out to be 0.604%. The result for `C#CCN1CCN(c2ccc(F)cc2)CC1` reads 5.72%; that for `CS(=O)(=O)c1cnc2c(-c3ccsc3)cnn2c1N`, 2.43%. The result for `CCOC(=O)c1[nH]ncc1CN1CCC(Cc2ccccc2)(C(=O)OCC)CC1` reads -35.3%. The figure for `COc1ccc(S(=O)(=O)N(C(=O)C(C)C)c2ccc3oc(=O)sc3c2)cc1` is 4.16%; for `Cc1ccc(-c2csc(NC(=O)CCNC(=O)c3ccco3)n2)cc1` it is 5.76%. As to `O=C(c1cccs1)N1CCCC1`, the “hERG current change (%, negative = inhibition) at 10uM” value was 12.3%. The result for `CCOC(=O)C1CN(C)CCC1=O.Cl` (stereo not drawn) reads 6.3%. The result for `CC(=O)c1cccc(NC(=O)CSc2nc(=O)n(CCCN3CCOCC3)c3c2CCC3)c1` reads -29.1%.

Take `Cc1c(NC(=O)c2ccc(S(=O)(=O)N3CCOCC3)cc2)c(=O)n(-c2ccccc2)n1C`: the “hERG current change (%, negative = inhibition) at 10uM” value was found to be 10.1%. The result for `O=C(OCCCN1CCCCC1)c1ccc(O)cc1` reads -54.6%.

Consider `Brc1cccc(OCCCN2CCCCCC2)c1.O=C(O)C(=O)O`, for which the “hERG current change (%, negative = inhibition) at 10uM” value was -70%.

For the compound `CCOCCCNc1nc2c(c(=O)[nH]c(=O)n2C)n1CCCc1ccccc1`, the “hERG current change (%, negative = inhibition) at 10uM” value is given as -12.9%. Regarding `O=C(CSc1nc2c(cnn2-c2ccccc2)c(=O)[nH]1)N1CCCCC1`, the “hERG current change (%, negative = inhibition) at 10uM” value is -15.6%. The figure for `Cc1cccc(N2CC(C(=O)Nc3nc4ccc(S(C)(=O)=O)cc4s3)CC2=O)c1C` (stereo not drawn) is -0.339%; for `CCCCCc1c(O)nc(SCCN(CC)CC)[nH]c1=O.Cl` it is 9.87%. The figure for `CCNC(=O)NCCNC(=O)c1cc(OCC(F)(F)F)ccc1OCC(F)(F)F` is -1.64%; for `CSCCC(NC(=O)c1ccccc1)C(=O)NC1CC1` (stereo not drawn) it is 18.8%. The figure for `CCCn1c2c(c(O)c(C(=O)NCc3ccccc3)c1=O)CCCC2` is 17%; for `Cc1ccc(-c2nnc(SCC(=O)Nc3nccs3)n2N)cc1` it is -10.4%; for `COc1cc(C)ccc1Oc1ncnc(N)c1[N+](=O)[O-]` it is 9.66%. Regarding `CC1(C)COC2(OC1)C(=O)N(CN1CCOCC1)c1ccccc12`, the “hERG current change (%, negative = inhibition) at 10uM” value came out at 16.3%. The result for `O=C(Cc1ccccc1)NN1C(=O)c2ccccc2C1=O` reads -9.37%; that for `O=C(C1CCN(S(=O)(=O)c2ccccc2)CC1)N1CCCCCC1`, -3.55%. The figure for `COc1ccc2c(c1)c1c3n2CCN(C)C3=NCC1.Cl` is -67.7%; for `Cc1cccc(NC(=O)C2C3C=CC(C4CC34)C2C(=O)O)c1` (stereo not drawn) it is -12.8%; for `COC(=O)C1C(=O)C2=C(CC1C)NC(C)=C(C(=O)OC(C)C)C2c1ccc(OC)c(O)c1` (stereo not drawn) it is 8.68%. The figure for `COC(=O)c1cccc(NC(=O)Nc2ccc(Cl)cc2)c1` is 4.61%; for `CCOC(=O)N1CCC(=NNC(=O)Cn2ccc(C(F)(F)F)n2)CC1` it is 15.3%; for `C#CCn1cc[n+](CC(=O)N(C)C)c1.[Br-]` it is 5.28%. Consider `COc1ccc(OC)c(-c2cc(C(=O)Nc3cc(C)n(Cc4ccc(Cl)cc4)n3)no2)c1`, for which the “hERG current change (%, negative = inhibition) at 10uM” value was -2.91%.

The values are drawn from article PMC4336329 (PLoS ONE, 2015).
